# From the supplement of paper PMC8728848
# The other results are listed elsewhere or left out.
# B1: XCL (Xerocomus chrysenteron) (protein)
# chain: MSYSITLRVYQTNRDRGYFSIVEKTVWHFANGGTWSEANGAHTLTQGGSGTSGVLRFLSTKGERITVAVGVHNYKRWCDVVTGLKPDETALVINPQYYNNGGRDYVREKQLAEYSVTSAIGTKVEVVYTVAEGNNLEANVIFS
# How the values were obtained:
# Test in all cases: glycan array binding signal (z-score within array); higher = stronger binding
# Settings in all cases: glycan notation: IUPAC condensed, linker removed
# [1] = biological target: Fuc(a1-3)[Gal(b1-4)]GlcNAc(b1-2)Man(a1-3)[Fuc(a1-3)[Gal(b1-4)]GlcNAc(b1-2)Man(a1-6)]Man(b1-4)GlcNAc(b1-4)[Fuc(a1-6)]GlcNAc
# Outline: (§1)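 Glycan array binding is given as a within-array Z-score, which can be read as non-binding when negative. The arrays, 3228 of them, came from the Consortium for Functional Glycomics database and were retained only where the protein sequence was available. Z-scores were averaged across arrays of the same protein sequence at different concentrations or buffers and across linkers.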
# [2] = biological target: Fuc(a1-3)[Gal(b1-4)]GlcNAc(b1-3)Gal(b1-3)[Fuc(a1-4)]GlcNAc
# Outline: as §1
# [3] = biological target: Fuc(a1-3)[Gal(b1-4)]GlcNAc(b1-3)GalNAc
# Outline: as §1
# [4] = biological target: Fuc(a1-3)[Gal(b1-4)]GlcNAc(b1-4)Gal(b1-4)[Fuc(a1-3)]GlcNAc
# Outline: as §1
# [5] = biological target: Fuc(a1-3)[Gal(b1-4)]GlcNAc(b1-4)Gal(b1-4)[Fuc(a1-3)]GlcNAc(b1-4)Gal(b1-4)[Fuc(a1-3)]GlcNAc
# Outline: as §1
# [6] = biological target: Fuc(a1-3)[Gal(b1-4)]GlcNAc(b1-6)GalNAc
# Outline: as §1
# [7] = biological target: Fuc(a1-3)[Gal(b1-4)]GlcNAc(b1-6)[Gal(b1-3)GlcNAc(b1-3)]Gal(b1-4)Glc
# Outline: as §1
# [8] = biological target: Fuc(a1-3)[Gal(b1-4)]GlcNAc(b1-6)[Neu5Ac(a2-3)Gal(b1-3)]GalNAc
# Outline: as §1
# [9] = biological target: Fuc(a1-3)[Gal(b1-4)]GlcNAc6S
# Outline: as §1
# [10] = biological target: Fuc(a1-3)[Gal3S(b1-4)]GlcNAc
# Outline: as §1
# [11] = biological target: Fuc(a1-3)[Gal3S(b1-4)]GlcNAc6S
# Outline: as §1
# [12] = biological target: Fuc(a1-3)[GalNAc(b1-4)]GlcNAc
# Outline: as §1
# Fuc(a1-4)GlcNAc = biological target: Fuc(a1-4)GlcNAc
# Outline: as §1
# Fuc(b1-3)GlcNAc = biological target: Fuc(b1-3)GlcNAc
# Outline: as §1
# Gal(a1-2)Gal = biological target: Gal(a1-2)Gal
# Outline: as §1
# Gal(a1-3)Gal = biological target: Gal(a1-3)Gal
# Outline: as §1
# Gal(a1-3)Gal(b1-3)GlcNAc = biological target: Gal(a1-3)Gal(b1-3)GlcNAc
# Outline: as §1
# [13] = biological target: Gal(a1-3)Gal(b1-3)GlcNAc(b1-2)Man(a1-3)[Gal(a1-3)Gal(b1-3)GlcNAc(b1-2)Man(a1-6)]Man(b1-4)GlcNAc(b1-4)GlcNAc
# Outline: as §1
# [14] = biological target: Gal(a1-3)Gal(b1-3)GlcNAc(b1-3)GalNAc
# Outline: as §1
# [15] = biological target: Gal(a1-3)Gal(b1-3)[Fuc(a1-4)]GlcNAc(b1-2)Man(a1-3)[Gal(a1-3)Gal(b1-3)[Fuc(a1-4)]GlcNAc(b1-2)Man(a1-6)]Man(b1-4)GlcNAc(b1-4)GlcNAc
# Outline: as §1
# Gal(a1-3)Gal(b1-4)Glc = biological target: Gal(a1-3)Gal(b1-4)Glc
# Outline: as §1
# Gal(a1-3)Gal(b1-4)GlcNAc = biological target: Gal(a1-3)Gal(b1-4)GlcNAc
# Outline: as §1
# [16] = biological target: Gal(a1-3)Gal(b1-4)GlcNAc(b1-3)GalNAc
# Outline: as §1
# [17] = biological target: Gal(a1-3)Gal(b1-4)[Fuc(a1-3)]GlcNAc
# Outline: as §1
# [18] = biological target: Gal(a1-3)Gal(b1-4)[Fuc(a1-3)]GlcNAc(b1-2)Man(a1-3)[Gal(a1-3)Gal(b1-4)[Fuc(a1-3)]GlcNAc(b1-2)Man(a1-6)]Man(b1-4)GlcNAc(b1-4)GlcNAc
# Outline: as §1
# Gal(a1-3)GalNAc = biological target: Gal(a1-3)GalNAc
# Outline: as §1
# [19] = biological target: Gal(a1-3)[Gal(a1-4)]Gal(b1-4)GlcNAc
# Outline: as §1
# [20] = biological target: Gal(a1-4)Gal(b1-3)GlcNAc(b1-2)Man(a1-3)[Gal(a1-4)Gal(b1-3)GlcNAc(b1-2)Man(a1-6)]Man(b1-4)GlcNAc(b1-4)GlcNAc
# Outline: as §1
# Gal(a1-4)Gal(b1-4)Glc = biological target: Gal(a1-4)Gal(b1-4)Glc
# Outline: as §1
# Gal(a1-4)Gal(b1-4)GlcNAc = biological target: Gal(a1-4)Gal(b1-4)GlcNAc
# Outline: as §1
# [21] = biological target: Gal(a1-4)Gal(b1-4)GlcNAc(b1-2)Man(a1-3)[Gal(a1-4)Gal(b1-4)GlcNAc(b1-2)Man(a1-6)]Man(b1-4)GlcNAc(b1-4)GlcNAc
# Outline: as §1
# [22] = biological target: Gal(a1-4)Gal(b1-4)GlcNAc(b1-3)Gal(b1-4)Glc
# Outline: as §1
# Gal(a1-4)GlcNAc = biological target: Gal(a1-4)GlcNAc
# Outline: as §1
# Gal(a1-6)Glc = biological target: Gal(a1-6)Glc
# Outline: as §1
# Gal(b1-2)Gal = biological target: Gal(b1-2)Gal
# Outline: as §1
# Gal(b1-3)Gal = biological target: Gal(b1-3)Gal
# Outline: as §1
# Gal(b1-3)Gal(b1-4)GlcNAc = biological target: Gal(b1-3)Gal(b1-4)GlcNAc
# Outline: as §1
binder,measurement,setting,value
B1,glycan array binding signal (z-score),[1],-0.251
same,glycan array binding signal (z-score),[2],-0.31
same,glycan array binding signal (z-score),[3],-0.27
same,glycan array binding signal (z-score),[4],-0.303
same,glycan array binding signal (z-score),[5],-0.291
same,glycan array binding signal (z-score),[6],-0.297
same,glycan array binding signal (z-score),[7],-0.321
same,glycan array binding signal (z-score),[8],-0.04
same,glycan array binding signal (z-score),[9],-0.321
same,glycan array binding signal (z-score),[10],-0.317
same,glycan array binding signal (z-score),[11],-0.312
same,glycan array binding signal (z-score),[12],-0.315
same,glycan array binding signal (z-score),Fuc(a1-4)GlcNAc,-0.295
same,glycan array binding signal (z-score),Fuc(b1-3)GlcNAc,-0.329
same,glycan array binding signal (z-score),Gal(a1-2)Gal,-0.319
same,glycan array binding signal (z-score),Gal(a1-3)Gal,-0.319
same,glycan array binding signal (z-score),Gal(a1-3)Gal(b1-3)GlcNAc,-0.308
same,glycan array binding signal (z-score),[13],-0.253
same,glycan array binding signal (z-score),[14],-0.276
same,glycan array binding signal (z-score),[15],-0.202
same,glycan array binding signal (z-score),Gal(a1-3)Gal(b1-4)Glc,-0.32
same,glycan array binding signal (z-score),Gal(a1-3)Gal(b1-4)GlcNAc,-0.327
same,glycan array binding signal (z-score),[16],0.103
same,glycan array binding signal (z-score),[17],-0.315
same,glycan array binding signal (z-score),[18],-0.247
same,glycan array binding signal (z-score),Gal(a1-3)GalNAc,-0.207
same,glycan array binding signal (z-score),[19],-0.319
same,glycan array binding signal (z-score),[20],-0.307
same,glycan array binding signal (z-score),Gal(a1-4)Gal(b1-4)Glc,-0.282
same,glycan array binding signal (z-score),Gal(a1-4)Gal(b1-4)GlcNAc,-0.301
same,glycan array binding signal (z-score),[21],-0.32
same,glycan array binding signal (z-score),[22],-0.32
same,glycan array binding signal (z-score),Gal(a1-4)GlcNAc,-0.287
same,glycan array binding signal (z-score),Gal(a1-6)Glc,-0.302
same,glycan array binding signal (z-score),Gal(b1-2)Gal,-0.289
same,glycan array binding signal (z-score),Gal(b1-3)Gal,-0.301
same,glycan array binding signal (z-score),Gal(b1-3)Gal(b1-4)GlcNAc,-0.298
